Scores with a large standard error are left out. Two further conditions of the source, in which the scores hardly spread, are not listed. In variant names, del marks residues removed and ins residues inserted between the two positions. For some assays here: How much ogerin was present is not stated here.

In the GPR68 mutational scans of Howard et al. (2025) one finds cAMP reporter score and surface expression score data, which are given here for four variants.

First the molecules themselves.
B1: GPR68, Q15743 (parent)
chain: MGNITADNSSMSCTIDHTIHQTLAPVVYVTVLVVGFPANCLSLYFGYLQIKARNELGVYLCNLTVADLFYICSLPFWLQYVLQHDNWSHGDLSCQVCGILLYENIYISVGFLCCISVDRYLAVAHPFRFHQFRTLKAAVGVSVVIWAKELLTSIYFLMHEEVIEDENQHRVCFEHYPIQAWQRAINYYRFLVGFLFPICLLLASYQGILRAVRRSHGTQKSRKDQIQRLVLSTVVIFLACFLPYHVLLLVRSVWEASCDFAKGVFNAYHFSLLLTSFNCVADPVLYCFVSETTHRDLARLRGACLAFLTCSRTGRAREAYPLGAPEASGKSGAQGEEPELLTKLHPAFQTPNSPGSGGFPTGRLA

Series [1] covers variants of B1. Briefly: cAMP reporter score (Enrich2 score, wild type = 0); higher = more signal; HEK293T, FACS bins.
In series [2] the parent is B1. Briefly: surface expression score (Enrich2 score, wild type = 0); higher = more signal; HEK293T, FACS bins.

Consider MGNITADNSSMSCTIDHTIHQTLAPVVYVTVLVVGFPANCLSLYFGYLQIKARNELGVYLCNLTVADLFYICSLPFWLQYVLQHDNWSHGDLSCQVCGILLYENIYISVGFLCCISVDRYLAVAHPFRFHQFRTLKAAVGVSVVIWAKELLTSIYFLMHEEVIEDENQHRVCFEHYPIQAWQRAINYYRFLVGFLFPICLLLASYQGILRAVRRSHGTQKSRKDQIQRLVLSTVVIFLACFLPYHVLLLVRSVWEASADFAKGVFNAYHFSLLLTSFNCVADPVLYCFVSETTHRDLARLRGACLAFLTCSRTGRAREAYPLGAPEASGKSGAQGEEPELLTKLHPAFQTPNSPGSGGFPTGRLA [C258A], for which the cAMP reporter score in series [1] (pH 5.5) was -1.2; in series [1] (pH 6), -0.387; in series [1] (pH 6.5, modulator: ogerin) it was -1.04. The surface expression score in series [2] was -0.601.

In the case of MGNITADNSSMSCTIDHTIHQTLAPVVYVTVLVVGFPANCLSLYFGYLQIKARNELGVYLCNLTVADLFYICSLPFWLQYVLQHDNWSHGDLSCQVCGILLYENIYISVGFLCCISVDRYLAVAHPFRFHQFRTLKAAVGVSVVIWAKELLTSIYFLMHEEVIEDENQHRVCFEHYPIQAWQRAINYYRFLVGFLFPICLLLASYQGILRAVRRSHGTQKSRKDQIQRLVLSTVVIFLACFLPYHVLLLVRSVWEASDDFAKGVFNAYHFSLLLTSFNCVADPVLYCFVSETTHRDLARLRGACLAFLTCSRTGRAREAYPLGAPEASGKSGAQGEEPELLTKLHPAFQTPNSPGSGGFPTGRLA [C258D], the cAMP reporter score in series [1] (pH 5.5) is -1.35; in series [1] (pH 6, modulator: ogerin), -1.28; in series [1] (pH 6.5, modulator: ogerin) it was -0.786. In addition, the surface expression score in series [2] was -0.059.

For the variant MGNITADNSSMSCTIDHTIHQTLAPVVYVTVLVVGFPANCLSLYFGYLQIKARNELGVYLCNLTVADLFYICSLPFWLQYVLQHDNWSHGDLSCQVCGILLYENIYISVGFLCCISVDRYLAVAHPFRFHQFRTLKAAVGVSVVIWAKELLTSIYFLMHEEVIEDENQHRVCFEHYPIQAWQRAINYYRFLVGFLFPICLLLASYQGILRAVRRSHGTQKSRKDQIQRLVLSTVVIFLACFLPYHVLLLVRSVWEASFDFAKGVFNAYHFSLLLTSFNCVADPVLYCFVSETTHRDLARLRGACLAFLTCSRTGRAREAYPLGAPEASGKSGAQGEEPELLTKLHPAFQTPNSPGSGGFPTGRLA [C258F], the cAMP reporter score in series [1] (pH 5.5) was -1.23; in series [1] (pH 6), -1.36; in series [1] (pH 6, modulator: ogerin) it was -1.56; in series [1] (pH 6.5, modulator: ogerin), -1.32. The surface expression score in series [2] was -2.3.

As to MGNITADNSSMSCTIDHTIHQTLAPVVYVTVLVVGFPANCLSLYFGYLQIKARNELGVYLCNLTVADLFYICSLPFWLQYVLQHDNWSHGDLSCQVCGILLYENIYISVGFLCCISVDRYLAVAHPFRFHQFRTLKAAVGVSVVIWAKELLTSIYFLMHEEVIEDENQHRVCFEHYPIQAWQRAINYYRFLVGFLFPICLLLASYQGILRAVRRSHGTQKSRKDQIQRLVLSTVVIFLACFLPYHVLLLVRSVWEASEDFAKGVFNAYHFSLLLTSFNCVADPVLYCFVSETTHRDLARLRGACLAFLTCSRTGRAREAYPLGAPEASGKSGAQGEEPELLTKLHPAFQTPNSPGSGGFPTGRLA [C258E], the cAMP reporter score is -0.986 in series [1] (pH 5.5); -0.703 in series [1] (pH 6); -1.32 in series [1] (pH 6.5, modulator: ogerin). Also, in series [2], the surface expression score was -0.863.
